Out of some 1,300 compounds screened, about 25 (2%) were called active. About 9% were inconclusive and are not listed. Calls follow the shape of the dose curve; as a rule, active = well fitted activation curve with a large enough effect; inconclusive = small, poorly fitted or top-dose-only effect; inactive = flat fitted curve, though single readings scatter. The list shows a part of the results.
Target: Glucagon-like peptide 1 receptor (Homo sapiens) (UniProt P43220)
Assay: qHTS of GLP-1 Receptor Agonists: Hit Validation; also: % of control where 0% means no effect
Conditions: HEK293 GLP-1R, cAMP-response luciferase, 4-6 h; series mostly up to 46.1 µM; activation: at the top concentration
Method in brief: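 Stably transfected HEK293 cells co-expressing GLP-1R and a cAMP-responsive luciferase reporter, plated 12 h before compound. Compound exposure 4-6 hr at 37 deg C, 5% CO2; luciferase luminescence read after 12 min detection at RT.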

Sequence of UniProt P43220 (P43220 whole entry, looked up): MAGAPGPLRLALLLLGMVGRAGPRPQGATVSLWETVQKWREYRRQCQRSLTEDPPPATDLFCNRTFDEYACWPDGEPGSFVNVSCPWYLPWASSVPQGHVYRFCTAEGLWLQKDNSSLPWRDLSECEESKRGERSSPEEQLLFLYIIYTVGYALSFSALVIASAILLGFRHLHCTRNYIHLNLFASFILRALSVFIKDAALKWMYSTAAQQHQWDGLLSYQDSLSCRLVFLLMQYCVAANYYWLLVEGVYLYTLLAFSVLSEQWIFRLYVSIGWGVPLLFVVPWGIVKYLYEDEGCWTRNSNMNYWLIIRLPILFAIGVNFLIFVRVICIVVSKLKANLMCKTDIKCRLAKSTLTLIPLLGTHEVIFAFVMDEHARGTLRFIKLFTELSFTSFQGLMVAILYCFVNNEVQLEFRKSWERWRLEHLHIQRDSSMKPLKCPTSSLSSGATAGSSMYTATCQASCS

activation, inactive:
CCC(=O)Nc1sc2c(c1C#N)CCCCC2 0.438%, Fc1cnc(N2CCOCC2)nc1N1CCc2ccccc21 18.5%, COc1ccc(-c2ccc3ccccc3n2)cc1OC 9.04%, CCOc1ncccc1C(=O)Nc1ccc2nc(C)sc2c1 6.12%, CCOc1ccc(-c2cn3ccccc3n2)cc1[N+](=O)[O-] 2.72%, Cc1cc(Cl)c2oc(C(=O)NCCC3CCCCO3)c(C)c2c1 (centres undefined) 12.6%, CC(C)(C)c1ccc(/C=C2/SC(N3CCCC3)=NC2=O)cc1 7.27%, C=CCn1c(SCc2ccc(Cl)cc2)nc2c1c(=O)[nH]c(=O)n2C 10.8%, CCN(CC)c1nc(OC)nc(-n2nnc(C(C)=O)c2C)n1 0.606%, COc1ccc(-c2cc(C(=O)N3CCCC(C(F)(F)F)C3)c3ccccc3n2)cc1OC (centres undefined) 7.08%, COc1ccc(/C=N/NC(=O)c2cccnc2)cc1CSc1ccccn1 0.398%, COc1ccc(C(CCN2CCCC2)c2c(OC)cc(OC)c3c(-c4ccccc4)cc(=O)oc23)cc1 (centres undefined) 7.79%, Clc1cccc2sc(N3CCOCC3)nc12 -0.197%, O=[N+]([O-])c1cnccc1NC1CCCCC1 3.34%, COc1ccc(-c2csc(-c3cccnc3)n2)cc1C 5.51%, CCOc1cc2[nH]c(=S)n(CCCOC)c(=O)c2cc1OCC 1.87%, Cc1ccc(C)c(NS(=O)(=O)c2ccc(-c3cnc(C4CC4)o3)cc2)c1 23.1%, O=C(COc1ccc(F)cc1Br)NCC1COc2ccccc2O1 (centres undefined) 18.3%, CCOC(=O)c1c(C)n(-c2ccccc2)c2ccc(OCCN(C)C)cc12 1.98%, CC1(C)Cc2c(sc3c2C(=O)N(c2ccccc2)C2=NCCCN23)CO1 8.53%, Cc1nc(-c2ccc([N+](=O)[O-])cc2)c(-c2ccccc2)o1 17.5%, O=C1CN(c2nc(-c3cccnc3)nc3sc4c(c23)CCCC4)CCN1 26.3%, COc1ccc(-c2cc(C3CC3)nc(N)c2C#N)cc1 3.1%, COc1ccc(-c2cnc3c(NC(C)=O)cc(-c4cccc(C(=O)NCCO)c4)cn23)cc1OC 27.5%, Cc1ccccc1Nc1c([N+](=O)[O-])ccc2nonc12 18.7%, COc1cccc(OCCNc2cc(N3CCOCC3)ccc2[N+](=O)[O-])c1 23%, N#Cc1nc(Cc2ccccc2)oc1NCc1ccccc1 2.87%, CCOC(=O)c1c(C)c(C(=O)OCC)n(C)c1C 5.85%, OC(COc1c(Br)cc(Br)cc1Br)CN1CCOCC1 (centres undefined) 1.84%, N#Cc1sc2nc3c(cc2c1N)CCCC3 21.3%, CC(C)Nc1nc(NC(C)C)nc(N(C)n2cnnc2)n1 -0.81%, N#Cc1nc(-c2ccccc2F)oc1NCc1cccc2c1OCO2 9.1%, Cc1ccc(OCCOc2cccc3ccc(C)nc23)c([N+](=O)[O-])c1 1.31%, COc1cc2c(cc1OC)C(CC#N)=NC(C)(C)C2 7.97%, Cc1nc(N2CCOCC2)c2c(C)c(C(=O)Nc3ccccc3C(F)(F)F)sc2n1 5.01%, COc1ccc(CN(C)C(=O)c2ccc3ccccc3n2)cc1F 22%, O=[N+]([O-])c1ccc(Cc2nnc(-c3ccccc3Cl)o2)cc1 2.53%, CCCS/C(N)=N/N=C/c1ccccc1O 5.39%, CC(=O)NC(C)(c1ccccc1)c1nc(-c2cnc3ccccc3c2)cs1 (centres undefined) 8.36%, CCn1c(=O)cc(OCC(=O)N2CCN(C(=O)c3ccco3)CC2)c2ccccc21 0.189%, CC(=O)c1cccc(Nc2nc(=O)c3cccnc3s2)c1 3.72%, Nc1ncnc(Oc2ccccc2F)c1[N+](=O)[O-] -0.279%, COc1cc2c(cc1OC)CN(C(=O)c1ccc(N3CCCC3)c([N+](=O)[O-])c1)CC2 4.86%, COc1ccc(-c2ccc(=O)n(Cc3cc(=O)n4ccccc4n3)n2)cc1 8.87%, COC(=O)C(C)Sc1nc2c(c(=O)[nH]c(=O)n2C)n1CCC(C)C (centres undefined) 29.1%, O=C(NCc1ccccn1)C1CC(c2ccccc2O)=NO1 (centres undefined) 0.181%, COc1ccc(CSc2nnnn2-c2ccccc2)cc1 0.383%, Cc1nc(-c2cccs2)sc1C(=O)NN -0.432%, CCOc1ccc2[nH]c(=O)c(CN(CCN3CCCC3)C(=S)Nc3ccccc3OCC)cc2c1 7.25%, O=S1(=O)N=C(Nc2ccc(N3CCOCC3)c(Cl)c2)c2ccccc21 2.79%, COC(=O)c1ccc(OCC2c3cc(OC)c(OC)cc3CCN2C(=O)Cc2ccc(OC)c(OC)c2)cc1 (centres undefined) 12.8%, CCCn1cnc2c(SCc3ccccc3F)nc(N)nc21 18.3%, CCCc1nnc2c(N(C)S(=O)(=O)c3ccc(C)cc3)nc3ccccc3n12 10.2%, CCOC(=O)C1=C(C)NC(SCC(N)=O)=C(C#N)C1c1ccccc1 (centres undefined) 3.93%, CCCNC(=O)c1ccc(COc2ccc(C(C)(C)C)cc2)o1 1.75%, CC(=O)N[C@@H](CS)C(=O)O -0.63% [at 92.2 µM], C=CCOC(=O)C1=C(C)Nc2nnnn2C1c1cccc(OC)c1OC (centres undefined) -0.198%, CCOC(=O)c1c(NC(=O)CSc2nc3cc(Cl)ccc3c(=O)n2Cc2ccco2)sc(C(=O)N(C)C)c1C 1.92%, COc1ccc(/C=C2\N=C3CCCCCN3C2=O)cc1OC 7.49%, CCOc1cc(/C=N/O)ccc1OCc1ccc(F)cc1 4.36%, C=CCc1c(C)nc(SC)nc1Nc1ccc(C)cc1 3.46%, CC12CCC(C(=O)N(c3cccc(Cl)c3)C1=O)C2(C)C (centres undefined) -0.253%, CCOC(=O)c1cc(NC(=O)c2cccnc2)cc(C(=O)OCC)c1 0.228%, COc1ccccc1NC(=O)COC(=O)/C=C/c1ccc(OC)c(OC)c1 8.77%, CSc1nnc2n(-c3ccccc3)c(=O)c3c4c(sc3n12)CCC4 3.74%, O=C(Cc1ccc2c(c1)CCCC2)Nc1ccccc1Cl 3.74%, COc1ccc(Cl)cc1C(=O)OCC(=O)Nc1cccnc1Cl 1.77%, Nc1cc(OC(=O)c2ccc(F)cc2)nn1S(=O)(=O)c1ccc(F)cc1 -0.803%, COc1ccc(N/C=C/C(=O)c2cc(OC)c(OC)c(OC)c2)cc1 24.8%, CCOC(=O)c1oc2c(c1C)/C(=N/O)CCC2 14.1%, COc1ccccc1C(=O)Nc1cccc2cccnc12 9.08%, COc1cc(/C=N/NC(=O)c2cc(-c3c(C)nn(-c4ccccc4)c3C)n[nH]2)ccc1O 13.1%, Nc1nc(N)c2ncc(C(=O)CCc3ccccc3)nc2n1 -0.536%, CCOc1ccc(-c2nnc3n2N=C(c2ccc(OC)cc2)CS3)cc1 8.96%
